According to publication PMC3169550:
Where a chain is given by its changes, count along the chain named. Results are given in words; binding and its absence hold for the method and conditions named. Binding seen in cells or lysates may run through a third protein. Some binding calls cover weakened binding; strength is not graded here. Where a sequence is shown, tags or fusion partners need not be part of it.

By UniProt entry, the sequences of proteins in these tests, tags left out.
UniProt Q9QYP6: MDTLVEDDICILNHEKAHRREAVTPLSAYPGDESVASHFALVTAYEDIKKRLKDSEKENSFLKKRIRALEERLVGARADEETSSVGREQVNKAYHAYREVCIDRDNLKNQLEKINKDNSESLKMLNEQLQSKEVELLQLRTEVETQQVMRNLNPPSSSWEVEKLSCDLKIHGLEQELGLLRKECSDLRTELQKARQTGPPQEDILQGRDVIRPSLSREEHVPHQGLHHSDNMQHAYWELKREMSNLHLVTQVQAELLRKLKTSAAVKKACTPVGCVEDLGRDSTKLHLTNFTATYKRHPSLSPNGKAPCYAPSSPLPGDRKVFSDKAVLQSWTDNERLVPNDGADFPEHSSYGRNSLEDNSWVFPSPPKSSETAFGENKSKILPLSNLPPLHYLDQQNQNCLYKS
UniProt A2A9T0: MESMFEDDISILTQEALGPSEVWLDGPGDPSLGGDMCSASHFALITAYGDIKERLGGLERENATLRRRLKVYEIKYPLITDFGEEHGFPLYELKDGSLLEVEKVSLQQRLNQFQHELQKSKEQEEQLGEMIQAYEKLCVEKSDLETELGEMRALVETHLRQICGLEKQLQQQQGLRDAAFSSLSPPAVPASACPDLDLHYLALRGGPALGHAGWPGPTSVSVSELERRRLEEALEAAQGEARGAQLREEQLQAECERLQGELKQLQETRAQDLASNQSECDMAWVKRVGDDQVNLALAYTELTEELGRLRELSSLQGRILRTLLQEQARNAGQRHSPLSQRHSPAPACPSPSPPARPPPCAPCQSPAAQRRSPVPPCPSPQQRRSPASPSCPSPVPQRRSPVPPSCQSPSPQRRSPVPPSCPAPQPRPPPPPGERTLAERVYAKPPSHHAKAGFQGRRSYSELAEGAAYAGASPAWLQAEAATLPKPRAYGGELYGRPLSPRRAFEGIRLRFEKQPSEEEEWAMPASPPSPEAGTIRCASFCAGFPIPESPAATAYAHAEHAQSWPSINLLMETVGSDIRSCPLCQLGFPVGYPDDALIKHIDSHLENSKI

Columns and labels:
Test in all cases: co-IP; Myc-tagged TBK1 constructs coexpressed with V5-tagged adaptors in HEK293 cells; Frackelton buffer (10 mM Tris/HCl pH 7.5, 50 mM NaCl, 1% Triton X-100); anti-Myc agarose or anti-V5 agarose, 2 h at 4°C; immunoblotting with anti-Myc and anti-V5
[1] = target: T1, Myc-tagged TBK1 M690A (murine) (UniProt Q9WUN2)
T1 sequence: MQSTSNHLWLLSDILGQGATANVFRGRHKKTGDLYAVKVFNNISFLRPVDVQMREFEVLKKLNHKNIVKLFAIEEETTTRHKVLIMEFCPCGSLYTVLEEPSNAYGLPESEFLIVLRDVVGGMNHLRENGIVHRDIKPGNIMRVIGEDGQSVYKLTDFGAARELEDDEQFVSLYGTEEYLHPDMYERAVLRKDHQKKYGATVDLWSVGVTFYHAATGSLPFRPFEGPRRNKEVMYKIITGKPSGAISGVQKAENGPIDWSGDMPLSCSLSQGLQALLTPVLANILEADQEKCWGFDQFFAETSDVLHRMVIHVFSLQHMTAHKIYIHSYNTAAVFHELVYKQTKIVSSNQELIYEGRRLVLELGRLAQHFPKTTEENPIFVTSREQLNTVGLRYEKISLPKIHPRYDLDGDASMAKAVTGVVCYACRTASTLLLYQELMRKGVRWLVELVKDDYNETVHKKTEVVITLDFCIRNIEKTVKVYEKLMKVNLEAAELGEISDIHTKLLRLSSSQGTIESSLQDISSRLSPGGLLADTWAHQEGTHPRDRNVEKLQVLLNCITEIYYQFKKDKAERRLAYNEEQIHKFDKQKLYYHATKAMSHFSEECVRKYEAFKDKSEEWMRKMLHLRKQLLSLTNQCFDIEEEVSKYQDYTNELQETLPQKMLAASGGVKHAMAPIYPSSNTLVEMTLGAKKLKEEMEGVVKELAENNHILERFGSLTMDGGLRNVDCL

[2] = target: T2, Myc-tagged TBK1 L711A (murine) (UniProt Q9WUN2)
T2 sequence: T1 sequence with A690M, L711A

[3] = target: T3, Myc-tagged TBK1 N708A (murine) (UniProt Q9WUN2)
T3 sequence: T1 sequence with A690M, N708A

Row | binding [1] | binding [2] | binding [3] | Substance
1 | binds | binds | binds | V5-tagged NAP1 (from UniProt Q9QYP6 1-405)
2 | binds | binds | binds | V5-tagged Sintbad (from UniProt A2A9T0 1-611)
